Data from article PMC12820563, “FoxP3 forms a head-to-head dimer in vivo and stabilizes its multimerization on adjacent microsatellites”.
The list shows a part of the results.

Each sequence was assayed against T1, MBP-FoxP1dN (Mus musculus, UniProt P58462 326-579) (assay: PD-seq (MBP pull-down with sequencing); 20 mM Tris-HCl pH 7.5, 100 mM NaCl, 1.5 mM MgCl2, 0.4 uM protein, 0.1 uM dsDNA library, 30 min, room temperature, amylose pull-down; high values mean tight binding). Conditions: protein: recombinant; tags: His6-MBP; chain copies: 2; dsDNA, one strand shown.
T1 sequence: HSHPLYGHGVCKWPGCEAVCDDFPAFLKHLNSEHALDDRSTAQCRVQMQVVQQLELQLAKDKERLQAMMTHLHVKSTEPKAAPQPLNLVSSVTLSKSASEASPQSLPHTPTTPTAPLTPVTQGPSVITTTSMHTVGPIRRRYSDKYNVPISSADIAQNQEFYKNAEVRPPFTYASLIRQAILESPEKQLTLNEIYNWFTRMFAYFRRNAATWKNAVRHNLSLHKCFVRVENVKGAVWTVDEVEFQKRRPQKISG
Outline: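 Binding is reads-per-million enrichment of pull-down over input, with replicates pooled. It comes from 30 min room-temperature incubation in Tris pH 7.5 buffer with NaCl and MgCl2 of 0.4 µM His6-MBP-tagged, N-terminally truncated mouse FoxP3 or FoxP1 fragment from E. coli with 0.1 µM Klenow-filled degenerate double-stranded DNA library, followed by amylose resin capture, three washes and Illumina sequencing of the released DNA.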

Going from “GATGATTGTTCTCCCAGCTGATGAATTATCTTTATCGAGTAAACAAATTTTCCTAATCTTTCTGTTCAAGCGCCATCTAC” to “GATGATTGTTCTCCCAGCTGATGAATTTCTTCCGTCGAGTAAACAAATTTTCCTAATCTTTCTGTTCAAGCGCCATCTAC”, the binding signal falls from 1.09 RPM ratio (pull-down/input) to 0.835 RPM ratio (pull-down/input).

Going from “GATGATTGTTCTCCCAGCTGATGAATTAAGGCTATCGAGTAAACAAATTTTCCTAATCTTTCTGTTCAAGCGCCATCTAC” to “GATGATTGTTCTCCCAGCTGATGAATTACAACATTCGAGTAAACAAATTTTCCTAATCTTTCTGTTCAAGCGCCATCTAC”, the binding signal rises from 0.903 RPM ratio (pull-down/input) to 1.71 RPM ratio (pull-down/input).

Going from “GATGATTGTTCTCCCAGCTGATGAATTTGCCTTGTCGAGTAAACAAATTTTCCTAATCTTTCTGTTCAAGCGCCATCTAC” to “GATGATTGTTCTCCCAGCTGATGAATTTGTAGGTTCGAGTAAACAAATTTTCCTAATCTTTCTGTTCAAGCGCCATCTAC”, the binding signal rises from 0.889 RPM ratio (pull-down/input) to 1.02 RPM ratio (pull-down/input).

Compared with “GATGATTGTTCTCCCAGCTGATGAATTGATTGGATCGAGTAAACAAATTTTCCTAATCTTTCTGTTCAAGCGCCATCTAC”, “GATGATTGTTCTCCCAGCTGATGAATTAACCTAATCGAGTAAACAAATTTTCCTAATCTTTCTGTTCAAGCGCCATCTAC” is lower in binding signal: 1.08 RPM ratio (pull-down/input) for the first, 1.05 RPM ratio (pull-down/input) for the second.

Going from “GATGATTGTTCTCCCAGCTGATGAATTACATACGTCGAGTAAACAAATTTTCCTAATCTTTCTGTTCAAGCGCCATCTAC” to “GATGATTGTTCTCCCAGCTGATGAATTAACTTGATCGAGTAAACAAATTTTCCTAATCTTTCTGTTCAAGCGCCATCTAC”, the binding signal falls from 1.34 RPM ratio (pull-down/input) to 0.84 RPM ratio (pull-down/input).

Going from “GATGATTGTTCTCCCAGCTGATGAATTAGTTTGTTCGAGTAAACAAATTTTCCTAATCTTTCTGTTCAAGCGCCATCTAC” to “GATGATTGTTCTCCCAGCTGATGAATTATGATGGTCGAGTAAACAAATTTTCCTAATCTTTCTGTTCAAGCGCCATCTAC”, the binding signal falls from 1.26 RPM ratio (pull-down/input) to 1.1 RPM ratio (pull-down/input).

Going from “GATGATTGTTCTCCCAGCTGATGAATTAGTATTTTCGAGTAAACAAATTTTCCTAATCTTTCTGTTCAAGCGCCATCTAC” to “GATGATTGTTCTCCCAGCTGATGAATTGTAGCCGTCGAGTAAACAAATTTTCCTAATCTTTCTGTTCAAGCGCCATCTAC”, the binding signal falls from 2.28 RPM ratio (pull-down/input) to 0.897 RPM ratio (pull-down/input).

First: GATGATTGTTCTCCCAGCTGATGAATTAGCCCTCTCGAGTAAACAAATTTTCCTAATCTTTCTGTTCAAGCGCCATCTAC
Second: GATGATTGTTCTCCCAGCTGATGAATTCGGGCTCTCGAGTAAACAAATTTTCCTAATCTTTCTGTTCAAGCGCCATCTAC
The binding signal of the first is higher: 0.798 RPM ratio (pull-down/input) for the first, 0.695 RPM ratio (pull-down/input) for the second.

First: GATGATTGTTCTCCCAGCTGATGAATTGGGTGGGTCGAGTAAACAAATTTTCCTAATCTTTCTGTTCAAGCGCCATCTAC
Second: GATGATTGTTCTCCCAGCTGATGAATTGACGGCATCGAGTAAACAAATTTTCCTAATCTTTCTGTTCAAGCGCCATCTAC
The binding signal of the first is lower: 0.83 RPM ratio (pull-down/input) for the first, 1.16 RPM ratio (pull-down/input) for the second.
